Hit rate of the full screen: of about 370,000 compounds, about 150 (0.041%) were called active. Inconclusive results, whose numbers are uncertain, are shown with a selection of clear calls. Calls follow the shape of the dose curve; as a rule, active = well fitted inhibition curve with a large enough effect; inconclusive = small, poorly fitted or top-dose-only effect; inactive = flat fitted curve, though single readings scatter. Potencies of inconclusive entries are left out as doubtful fits.
These compounds were tested against Beta-lactamase (Escherichia coli (strain K12)) (UniProt P00811) (assay: qHTS Inhibitors of AmpC Beta-Lactamase (assay with detergent)). Details: AmpC hydrolysis of nitrocefin, absorbance 480 nm, 0.01% Triton; series mostly up to 114 µM.
Sequence of UniProt P00811 (P00811 whole entry, looked up): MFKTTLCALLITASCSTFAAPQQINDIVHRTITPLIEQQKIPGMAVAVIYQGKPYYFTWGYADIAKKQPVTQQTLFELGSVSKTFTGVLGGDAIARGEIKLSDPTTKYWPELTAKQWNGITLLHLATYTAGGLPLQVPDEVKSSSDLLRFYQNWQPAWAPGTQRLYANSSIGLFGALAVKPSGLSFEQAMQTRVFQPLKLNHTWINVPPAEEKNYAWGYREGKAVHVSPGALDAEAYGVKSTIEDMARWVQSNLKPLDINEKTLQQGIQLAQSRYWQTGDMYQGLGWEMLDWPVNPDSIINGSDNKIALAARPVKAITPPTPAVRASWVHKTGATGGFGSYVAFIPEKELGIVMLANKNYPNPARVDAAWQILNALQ
Method in brief: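 20 mM phosphate pH 7.0 + 0.01% (detergent screen) or 0.0001% Triton X-100; 5.3 nM AmpC reagent; cpd preinc 15 min RT; nitrocefin (800 uM stock) to start; A480 q20 s × 4 min; Activity was normalised to no-enzyme and no-compound control wells.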
Cc1ccc(NC(=O)COc2ccccc2C=O)cc1Cl was tested, and the Potency was “inactive”. CCOC(=O)N1CCC(n2c(SCC(=O)NCc3ccccc3)nc3ccccc3c2=O)CC1 was tested, and the Potency was inconclusive [inhibitor, partial curve]. In the case of O=C(Cn1nc(C(F)F)cc1C1CC1)NCCC1=CCCCC1, the Potency is reported as inconclusive [inhibitor, full curve]. COc1ccccc1NC(=S)N(Cc1ccco1)Cc1cc2cc(C)c(C)cc2[nH]c1=O was tested, and the Potency was inconclusive [inhibitor, full curve]. In the case of COc1cccc(CNc2nc3ccccc3n2C)c1O, the Potency is reported as inconclusive [inhibitor, full curve, poor fit]. With O=c1cc(CO)oc(C(Nc2ccccn2)c2cccc(F)c2)c1O (stereo not drawn) the Potency was inconclusive [inhibitor, full curve, poor fit]. With O=C(COC(=O)C1CC2CCCC(C1)C2=O)c1cccc(Br)c1 (stereo not drawn) the Potency was inconclusive [inhibitor, full curve, poor fit]. In the case of CN1CCN(c2ccc(NC(=O)c3ccc(Cl)cc3)cn2)CC1, the Potency is reported as inconclusive [inhibitor, partial curve, poor fit]. With CCOc1ccc(NC(=O)Nc2cc(C(C)C)ccc2C)cc1 the Potency was “inactive”. With CC(C)C1C(C#N)=C(N)Oc2n[nH]c(-c3cccs3)c21 (stereo not drawn) the Potency was inconclusive [inhibitor, full curve]. In the case of COC(=O)CCCC(=O)N1CCC(CO)(CCc2ccccc2)CC1, the Potency is reported as inconclusive [inhibitor, full curve, poor fit]. In the case of Cc1ccc2c(c1)N(C(=O)N1CCC(C(=O)NC3CCCCCC3)CC1)CCO2, the Potency is reported as “inactive”. With CCOc1ccc(C(=O)NCC(=O)OCc2ccc(F)cc2Cl)cc1 the Potency was inconclusive [inhibitor, single point]. With CCn1c(SCC(=O)O)nc2sc3c(c2c1=O)CCC3 the Potency was inconclusive [inhibitor, full curve, poor fit]. CCN(CC)S(=O)(=O)c1ccc(C(=O)NCc2n[nH]c(=S)n2-c2ccccc2OC)cc1 was tested, and the Potency was inconclusive [inhibitor, full curve, poor fit]. In the case of Cc1cccc(Nc2ncnc3c2cnn3C)c1C, the Potency is reported as “inactive”. COc1ccc(C(=O)c2nc3c(n2O)CCCCC3)cc1 was tested, and the Potency was inconclusive [inhibitor, full curve, poor fit]. With S=c1nc(-c2ccccc2)n(CCCn2ccnc2)c2c1CCCC2 the Potency was inconclusive [inhibitor, full curve]. In the case of O=C(CN(c1ccccn1)S(=O)(=O)c1ccccc1)N/N=C/c1cccc([N+](=O)[O-])c1, the Potency is reported as inconclusive [inhibitor, partial curve, poor fit]. Cc1cccc(N(C(=O)c2csnn2)C(C(=O)NC2CCCCC2)c2ccncc2)c1 (stereo not drawn) was tested, and the Potency was inconclusive [inhibitor, full curve, poor fit]. With CC(c1ccccc1)n1c(CO)nc2ccccc21 (stereo not drawn) the Potency was inconclusive [inhibitor, full curve, poor fit]. With COc1ccc(S(=O)(=O)N2CCC(CN3C(=O)c4cccc5cccc(c45)C3=O)CC2)cc1 the Potency was “inactive”. CCn1cc(CNC(=O)c2cc(-c3cc(OC)ccc3OC)nc3ccccc23)c(C)n1 was tested, and the Potency was “inactive”. For O=C(c1cc(S(=O)(=O)NCc2ccco2)ccc1Br)N1CCOCC1, the Potency was inconclusive [inhibitor, full curve, poor fit]. CC1(C)S[C@@H]2[C@H](NC(=O)[C@H](N)c3ccccc3)C(=O)N2[C@H]1C(=O)OC1OC(=O)c2ccccc21 (stereo partly drawn) was tested, and the Potency was active: 63.1 µM. For Cc1cc(C(=O)N/N=C/c2ccc[nH]2)no1, the Potency was inconclusive [inhibitor, partial curve, poor fit]. In the case of CCCCN(C(=O)c1ccc(C)o1)c1c(N)n(CC(C)C)c(=O)[nH]c1=O, the Potency is reported as inconclusive [inhibitor, full curve, poor fit]. For COc1ccc(N(CC(=O)N2CCN(c3ccccc3)CC2)S(=O)(=O)c2c(C)noc2C)cc1, the Potency was inconclusive [inhibitor, full curve, poor fit]. With Cc1ccc(C)c(N2CCN(C(=O)c3cc(S(=O)(=O)N4CCCC4)c[nH]3)CC2)c1 the Potency was “inactive”. With COC(=O)c1ccccc1NC(=S)N(Cc1ccc2c(c1)OCO2)Cc1cc2ccc(OC)cc2[nH]c1=O the Potency was inconclusive [inhibitor, full curve, poor fit]. With Cc1cc(C(F)(F)F)nn2cnnc12 the Potency was inconclusive [inhibitor, full curve, poor fit]. In the case of C1CCc2nnc(-c3nnc4n3CCCCC4)n2CC1, the Potency is reported as inconclusive [inhibitor, full curve, poor fit]. With Cc1ccc(-n2nc(CO)c(C(=O)NCC(c3ccccc3)c3ccccc3)n2)cc1 the Potency was “inactive”. In the case of CC(C)n1cc(/C=N/Nc2ccc(Cl)c(C(=O)O)c2)c2ccccc21, the Potency is reported as “inactive”. For CCCCNC(=O)Cn1c(=O)cc(C)c2c(C)nn(-c3ccc(CC)cc3)c21, the Potency was “inactive”. In the case of COc1cccc2c1nc(C)c1cc(C)oc12, the Potency is reported as inconclusive [inhibitor, full curve, poor fit]. In the case of O=C(COC(=O)c1ccccc1)NC1CCCC1, the Potency is reported as “inactive”. Cc1ccc(C)c(NC(=O)c2cc3c([nH]c4ccccc43)c(C)n2)c1 was tested, and the Potency was inconclusive [inhibitor, full curve, poor fit]. For O=C(NCCN1CCCCCC1)C1CCCN1S(=O)(=O)c1cccc2nsnc12 (stereo not drawn), the Potency was “inactive”. CCCCn1c(=O)c(CC(C)=O)nc2ccccc21 was tested, and the Potency was inconclusive [inhibitor, partial curve, poor fit]. With CCC1(C2=NCCN2)Cc2ccccc2O1 (stereo not drawn) the Potency was inconclusive [inhibitor, full curve]. CCOC(=O)c1cc(CNC(=O)c2c(C)oc3c2CCCC3)c(C)o1 was tested, and the Potency was “inactive”. For O=C(NN1C(=O)c2ccccc2NC1c1ccc([N+](=O)[O-])o1)c1ccc([N+](=O)[O-])cc1 (stereo not drawn), the Potency was inconclusive [inhibitor, single point]. In the case of Cc1ccc(-c2cn3c(n2)sc2cc(C(=O)NCc4cccs4)ccc23)cc1, the Potency is reported as “inactive”. For CC(=O)Nc1ccc(S(=O)(=O)NC2CC(=O)N(c3ccc(C)cc3)C2)cc1 (stereo not drawn), the Potency was inconclusive [inhibitor, full curve, poor fit]. In the case of COC(=O)C1C(O)=C(C=NC2CCCCC2)C(=O)CC1(C)C (stereo not drawn), the Potency is reported as inconclusive [inhibitor, full curve]. With CCCCn1c(O)c(C(C)=Nc2c(C)n(C)n(-c3ccccc3)c2=O)c(=O)[nH]c1=O the Potency was inconclusive [inhibitor, partial curve, poor fit]. In the case of FC(F)(F)c1cc(-c2ccco2)nc(NCCc2ccccc2)n1, the Potency is reported as “inactive”. COCCN1CN(S(=O)(=O)c2cccc(Cl)c2)c2nc3ccccc3nc21 was tested, and the Potency was inconclusive [inhibitor, full curve, poor fit]. COc1cc2c(cc1OC)C(c1ccc([N+](=O)[O-])cc1)NC(=O)C2 (stereo not drawn) was tested, and the Potency was “inactive”. With CCOC(=O)CSc1nc2c(sc3ccccc32)c(=O)n1Cc1ccc(C)cc1 the Potency was “inactive”. For CCCN1C(=O)SC(CC(=O)Nc2ccc(Br)cc2)C1=O (stereo not drawn), the Potency was inconclusive [inhibitor, full curve, poor fit]. In the case of Cc1nnsc1C(=O)N1CCCC(Nc2ccc(F)c(F)c2)C1 (stereo not drawn), the Potency is reported as inconclusive [inhibitor, partial curve]. In the case of Cn1c(Cn2c(=O)sc3ccccc32)nnc1SCC(=O)NCC1CCCO1 (stereo not drawn), the Potency is reported as inconclusive [inhibitor, full curve, poor fit]. CCN(c1ncnc2c1cnn2-c1cc(Cl)ccc1C)C1CCCCC1 was tested, and the Potency was “inactive”. In the case of Cn1c(SCCSc2nnc(-c3ccccc3)n2C)nnc1-c1ccccc1, the Potency is reported as inconclusive [inhibitor, full curve, poor fit]. For CC1=C(C(=O)Nc2cccc(C(=O)NC(C)c3ccccc3)c2)SCCO1 (stereo not drawn), the Potency was “inactive”. In the case of O=C(N=C1SC2CS(=O)(=O)CC2N1Cc1ccc(F)cc1)C1CC1 (stereo not drawn), the Potency is reported as inconclusive [inhibitor, full curve, poor fit]. In the case of CCOC(=O)c1cnc2c(C)cccc2c1NCCc1ccc(OC)c(OC)c1, the Potency is reported as inconclusive [inhibitor, full curve, poor fit]. O=C(CN1CCCCC1)Nc1ccc(Br)cc1C(=O)c1ccccc1Cl was tested, and the Potency was inconclusive [inhibitor, partial curve]. Cn1ncc(Cl)c1C(=O)N1CCN(c2ccc(Cl)c(Cl)c2)CC1 was tested, and the Potency was “inactive”. With COc1cc2c(cc1OC)C(C)N(C(=O)[C@@H](NC(=O)c1ccccc1)C(C)C)CC2 (stereo partly drawn) the Potency was “inactive”. For O=C(c1cccs1)N(Cc1ccc(F)cc1)C1CCS(=O)(=O)C1 (stereo not drawn), the Potency was inconclusive [inhibitor, full curve, poor fit]. For CCNCc1cc2cc(C)ccc2[nH]c1=O, the Potency was inconclusive [inhibitor, full curve, poor fit]. With COc1ccc2[nH]c(C)c(CCN3C(=O)C4CC=CCC4C3=O)c2c1 (stereo not drawn) the Potency was inconclusive [inhibitor, full curve, poor fit]. For Cc1c(N=NC2=C(O)CCCC2=O)c(=O)n(-c2ccccc2)n1C, the Potency was “inactive”. With COc1ccc(CCN(C(=O)c2ccc(F)cc2)C2=CC3CCC(C2)N3C)cc1OC (stereo not drawn) the Potency was inconclusive [inhibitor, partial curve]. N#C/C(=C/c1cc(Cl)c(O)c(Cl)c1)C(=O)N1CCCCC1 was tested, and the Potency was inconclusive [inhibitor, full curve, poor fit].

Reference: PubChem BioAssay AID485294 (National Center for Advancing Translational Sciences (NCATS), 2010)
Also: nearly all actives have a fitted effect of over 25% in size.
Potency is read from the fitted curve at half-maximal effect; tags tell the direction and shape of the fitted curve.
